# Reference: PubChem BioAssay AID588579 (National Center for Advancing Translational Sciences (NCATS), 2011)
# The campaign covered roughly 400,000 compounds. About 2,200 (0.55%) were called active. The inconclusive results got no clear call from the source; some entries with a clear call stand among them for comparison. Calls come from the whole dose curve; as a rule, active = well fitted inhibition curve with a large enough effect; inconclusive = small, poorly fitted or top-dose-only effect, or another doubt; inactive = no such curve, though single readings can be large or run the other way. A potency beside an inconclusive call is a rough fit, not a confirmed value.
# Target: DNA polymerase kappa (Homo sapiens) (UniProt Q9UBT6)
# Chain of UniProt Q9UBT6 (Q9UBT6 whole entry, looked up): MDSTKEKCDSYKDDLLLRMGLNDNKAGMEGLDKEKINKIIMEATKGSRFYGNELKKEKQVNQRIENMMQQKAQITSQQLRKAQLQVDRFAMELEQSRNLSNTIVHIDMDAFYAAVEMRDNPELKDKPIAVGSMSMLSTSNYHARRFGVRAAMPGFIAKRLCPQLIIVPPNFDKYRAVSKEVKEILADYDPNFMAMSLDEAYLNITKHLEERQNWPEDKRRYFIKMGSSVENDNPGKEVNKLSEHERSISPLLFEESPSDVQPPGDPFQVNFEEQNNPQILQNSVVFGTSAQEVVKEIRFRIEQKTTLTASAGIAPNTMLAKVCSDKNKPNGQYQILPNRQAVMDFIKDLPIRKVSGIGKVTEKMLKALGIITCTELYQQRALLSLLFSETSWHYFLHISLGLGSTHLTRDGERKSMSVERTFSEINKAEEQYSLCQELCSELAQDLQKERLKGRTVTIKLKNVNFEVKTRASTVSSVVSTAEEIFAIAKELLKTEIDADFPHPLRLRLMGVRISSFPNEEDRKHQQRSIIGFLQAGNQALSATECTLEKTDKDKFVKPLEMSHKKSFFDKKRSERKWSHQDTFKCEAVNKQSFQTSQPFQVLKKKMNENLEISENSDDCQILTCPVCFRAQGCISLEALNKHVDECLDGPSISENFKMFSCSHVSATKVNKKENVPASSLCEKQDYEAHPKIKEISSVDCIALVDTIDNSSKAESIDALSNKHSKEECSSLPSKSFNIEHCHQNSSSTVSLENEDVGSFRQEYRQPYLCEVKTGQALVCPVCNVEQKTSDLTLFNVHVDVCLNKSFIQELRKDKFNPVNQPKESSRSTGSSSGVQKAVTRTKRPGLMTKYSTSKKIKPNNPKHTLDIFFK
# Experiment: qHTS for Inhibitors of Polymerase Kappa
# Conditions: purified Pol kappa, fluorescent DNA synthesis assay, 10 min; series mostly up to 107 µM; activity, negative = inhibition: at the top concentration
# Outline: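 Activity was followed as the change in fluorescence between reads at 0 and 10 min after starting the reaction with 50 nM substrate. Beforehand, 10 nM polymerase had been preincubated with compound for 15 min at room temperature.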
# % is set by controls: 0 for no effect and ±100 for the full control effect; potency is the fitted concentration of half-maximal effect; tags give direction and shape of the fitted curve.
SMILES,"activity, negative = inhibition",Potency
CCOc1ccccc1NC(=O)C(=O)Nc1ccc2nc3n(c(=O)c2c1)CCCCC3,inactive: -15.8%,
COc1ccc2c(=O)c3c(=O)n(Cc4ccco4)c(-c4ccco4)nc3oc2c1,,active: 70.8 µM
O=C(N/N=C/c1c(O)n(Cc2ccccc2)c(=O)c2ccccc12)c1cccnc1,,"inconclusive: 89.1 µM [inhibitor, partial curve, poor fit]"
Cc1ccccc1NC(=O)c1nc(S(=O)(=O)Cc2ccccc2F)ncc1Cl,inactive: -17.8%,
O=c1cc(-c2ccc(O)cc2)oc2c(-c3c(O)cc(O)c4c(=O)cc(-c5ccc(O)cc5)oc34)c(O)cc(O)c12,,"inconclusive: 79.4 µM [inhibitor, single point]"
NC(=O)CSc1cn(Cc2ccc(F)cc2)c2ccccc12,,"inconclusive: 39.8 µM [inhibitor, single point]"
CCN(CC)CCn1c2ccccc2c2cnc(N)c(C#N)c21,,"inconclusive: 89.1 µM [inhibitor, single point]"
Cc1ccc(-c2csc3ncnc(N4CCN(c5ccccc5O)CC4)c23)cc1,inactive: -9.89%,
O=C(CNC(=O)c1ccco1)N=Nc1c(O)[nH]c2ccc([N+](=O)[O-])cc12,,"inconclusive: 100 µM [inhibitor, single point]"
FC(F)(F)c1cc(-c2ccco2)nc(NCc2ccco2)n1,,"inconclusive: 89.1 µM [inhibitor, partial curve, poor fit]"
Cc1cc(NS(=O)(=O)c2ccc(NC(=O)c3cc4c(=O)n5ccccc5nc4s3)cc2)nc(C)n1,,active: 89.1 µM
O=c1ccc2[n+]([O-])c3ccc(O)cc3oc-2c1,,"inconclusive: 56.2 µM [inhibitor, partial curve, poor fit]"
CC1(CC(=O)N/N=C/c2cc([N+](=O)[O-])c(O)cc2O)OCCO1,,"inconclusive: 89.1 µM [inhibitor, single point]"
O=C(Nc1cccc(S(=O)(=O)NC2=NCCCCC2)c1)c1cc(-c2ccco2)nc2ccccc12,,active: 79.4 µM
O=C(Cc1ccc(S(=O)(=O)N2CCOCC2)s1)NC1CCCCC1,,"inconclusive: 89.1 µM [inhibitor, single point]"
Cc1nc2ccccn2c1C(=O)N/N=C/c1ccccc1[N+](=O)[O-],inactive: -2.42%,
O=C(O)C1C2C=CC(C2)C1C(=O)NCc1cccs1 (stereo not given),inactive: 0.0919%,
COC(=O)c1c(NC(=O)COC(=O)c2ccc(NC(=O)CC#N)cc2)sc2c1CCCCC2,,active: 50.1 µM
Clc1cccc(-n2ncc3c(N4CCCCC4)ncnc32)c1,inactive: -0.948% [at 60.1 µM],
CCn1c2ccccc2c2cc(N=C3SC(CC(=O)Nc4ccccc4OC)C(=O)N3CCOC)ccc21 (stereo not given),,"inconclusive: 89.1 µM [inhibitor, partial curve, poor fit]"
